The values that follow come from article PMC4336329 (PLoS ONE, 2015).

The structures appear in SMILES notation. In all, about 310,000 compounds went through this assay and about 2,200 (0.71%) showed an effect of 50% or more. The effect is printed as a negative number. The list shows a part of the results.

The target in this assay is human ether-à-go-go-related gene (hERG) potassium channel (human, UniProt Q12809). As to the kind of experiment: primary screen, population patch clamp on CHO cells stably expressing hERG.
Sequence of human ether-à-go-go-related gene (hERG) potassium channel (Q12809 whole entry, looked up): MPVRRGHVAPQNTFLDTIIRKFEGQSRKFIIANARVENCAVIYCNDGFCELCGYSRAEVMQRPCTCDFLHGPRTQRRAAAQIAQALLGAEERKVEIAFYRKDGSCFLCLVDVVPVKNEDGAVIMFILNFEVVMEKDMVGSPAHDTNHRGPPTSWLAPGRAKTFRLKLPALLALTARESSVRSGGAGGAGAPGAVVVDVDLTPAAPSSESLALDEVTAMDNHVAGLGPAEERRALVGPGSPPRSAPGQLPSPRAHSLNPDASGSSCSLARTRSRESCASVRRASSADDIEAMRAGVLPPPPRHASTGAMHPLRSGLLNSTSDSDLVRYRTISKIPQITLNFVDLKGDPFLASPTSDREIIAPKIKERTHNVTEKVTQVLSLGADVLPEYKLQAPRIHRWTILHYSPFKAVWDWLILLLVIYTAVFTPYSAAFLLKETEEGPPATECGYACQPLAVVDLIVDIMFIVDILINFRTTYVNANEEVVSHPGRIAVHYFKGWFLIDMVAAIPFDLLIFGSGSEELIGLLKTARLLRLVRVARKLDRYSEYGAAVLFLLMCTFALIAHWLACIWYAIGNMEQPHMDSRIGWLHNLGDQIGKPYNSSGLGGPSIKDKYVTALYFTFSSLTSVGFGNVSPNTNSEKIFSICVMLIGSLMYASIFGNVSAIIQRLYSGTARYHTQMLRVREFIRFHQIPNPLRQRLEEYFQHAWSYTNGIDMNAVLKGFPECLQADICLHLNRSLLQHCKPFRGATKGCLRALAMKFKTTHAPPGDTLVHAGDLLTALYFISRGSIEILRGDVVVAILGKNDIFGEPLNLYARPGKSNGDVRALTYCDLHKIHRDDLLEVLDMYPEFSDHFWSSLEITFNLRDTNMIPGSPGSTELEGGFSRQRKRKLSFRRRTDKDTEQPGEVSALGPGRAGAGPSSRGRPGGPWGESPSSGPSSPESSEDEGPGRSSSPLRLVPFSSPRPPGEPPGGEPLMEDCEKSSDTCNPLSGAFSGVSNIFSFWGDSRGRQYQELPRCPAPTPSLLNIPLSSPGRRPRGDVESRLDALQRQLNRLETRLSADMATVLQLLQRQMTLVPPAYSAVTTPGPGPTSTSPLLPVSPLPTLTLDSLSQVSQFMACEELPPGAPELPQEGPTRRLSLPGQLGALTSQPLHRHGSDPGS
`CCN(/N=C/c1ccc(Cl)cc1)c1cc(=O)n(C)c(=O)[nH]1`: the “hERG current change (%, negative = inhibition) at 1uM” value was determined as 5.53%.

For `COc1ccccc1NS(=O)(=O)c1ccc(C)c(NC(=O)c2c(C)noc2C)c1`, the “hERG current change (%, negative = inhibition) at 1uM” value turned out to be 4.9%. Next, `CCc1ccccc1N1C(=O)CC(=O)NC1=O`: 12.9%; `CC(C)(C)n1ncc2c(=O)n(Cc3c(F)cccc3Cl)cnc21`: 4.71%; `Cc1ccc(NC(=O)Nn2cnnc2)cc1`: 7.94%. For `COC(=O)Nc1sc2c(c1C(=O)NC1CC1)CCCCCC2`, the “hERG current change (%, negative = inhibition) at 1uM” value is given as -8.23%. Next, `CCOC(=O)c1cc(-c2ccc(C)cc2)n(CCC(=O)NC(C)CC)c1C` (stereo not shown): 19.1%.

On to `C=C(C)CNC(=S)N/N=C(\C)c1ccc(OC)cc1`, for which the “hERG current change (%, negative = inhibition) at 1uM” value came out at 14.8%. Next, `CCCOc1ccc(C(=O)N2CCCC2)cc1OC`: 3.71%; `COc1ccc(N/C=C(\C2OC(=O)c3ccccc32)[N+](=O)[O-])cc1` (stereo not shown): 10.7%; `CCc1nnc(NC(=O)CCC(=O)N2CCN(CCOc3ccc(C)cc3)CC2)s1`: 2.03%. Next, `Cc1cc(Nc2cccc([N+](=O)[O-])c2)c2cccc(C)c2n1.Cl`: -73.5%; `COc1cccc(CNC(=O)CNC(=O)N2CC(=O)Nc3ccccc32)c1`: 22.5%. Next, `Cc1nc(-c2cccnc2)sc1C(=O)Nc1ccc(F)cc1F`: 2.61%; `COc1ccc(NC(=O)c2ccc3nc[nH]c3c2)cc1`: 14.3%; `Cc1ccc2cc3cc(C(=O)NC4CC4)oc3nc2c1`: 8.06%. For the compound `O=C(O)c1cnc(N2CCOCC2)nc1`, the “hERG current change (%, negative = inhibition) at 1uM” value came out at 11.1%. Next, `CC(=O)c1c(C)[nH]c(C(=O)NC2=NCCS2)c1C`: 12.9%; `CCN(c1ccccc1)S(=O)(=O)c1ccc(Cl)c(NC(=O)c2ccc(=O)[nH]n2)c1`: 1.67%; `CC(C)N(Cc1nc(-c2ccc(Cl)cc2)no1)C(=O)c1cccs1`: -0.369%. In the case of `Cc1ccc(/C=N/NC(=O)c2cccs2)cc1[N+](=O)[O-]` it was 2.23%; in that of `Cc1nn(CCCC(=O)NCCc2ccccc2)c(=O)c2nccn12`, 7.57%. On to `Cc1c(CN2CCCCC2)c(O)n(CCCO)c(=O)c1C#N`, for which the “hERG current change (%, negative = inhibition) at 1uM” value was 7.05%. With `O=C(/C=C/c1ccco1)NC(=S)Nc1ccc(N2CCCC2)cc1`, the “hERG current change (%, negative = inhibition) at 1uM” value was 1.36%. Next, `O=C(NCc1ccccc1F)c1ccc2ccccc2n1`: 12%; `Cc1cccc2cc(C(c3nnnn3Cc3ccccc3)N3CCN(C)CC3)c(=O)[nH]c12` (stereo not shown): -1.27%. In the case of `O=C(O)C(Cc1cnc[nH]1)NS(=O)(=O)c1ccc(Cl)cc1` (stereo not shown) it was 2.62%; in that of `CCOC(=O)CNc1nnc(SCC(=O)OCC)[nH]c1=O`, 12.5%. In the case of `O=C(COc1ccc(Cl)cc1)NCCc1cnc[nH]1` it was 5.31%.

`COc1ccc(N(C(=O)c2cnccn2)C(C(=O)NC2CCCCC2)c2ccc(Cl)cc2)cc1` (stereo not shown): the “hERG current change (%, negative = inhibition) at 1uM” value is listed as 5.85%. Turning to `COc1ccc2[nH]c(=O)c(CN(Cc3cccs3)S(=O)(=O)c3c(C)ccc4nsnc34)cc2c1`, the “hERG current change (%, negative = inhibition) at 1uM” value is -8.43%. In the case of `O=c1c(Cc2ccccc2)c(O)ccn1Cc1ccc2c(c1)OCO2` it was 8.02%; in that of `CN1/C(=C/C=C(C#N)C#N)C(C)(C)c2ccccc21`, 10.9%; in that of `O=C(CCCOc1ccccc1)Nc1cccc(S(=O)(=O)N2CCCCC2)c1`, -0.501%.

For the compound `COc1ccc(C(=O)Nc2ccccc2C(=O)O)cc1Cl`, the “hERG current change (%, negative = inhibition) at 1uM” value came out at 8.44%. Next, `CCNC(=O)NC(=O)C(C)OC(=O)c1cccnc1SC` (stereo not shown): 4.88%. Next, `CCc1nc2sc3c(c2c(=O)n1NC(=O)CCl)CCCC3`: 3.5%; `CN(Cc1nc(-c2ccncc2)no1)S(=O)(=O)c1ccc(Br)cc1`: -27.4%. In the case of `CC[C@@]12C(=O)N(c3cccc(C)c3)C(=O)N1[C@H](c1ccc(Br)cc1)[C@@H]1C(=O)N(C(C)(C)C)C(=O)[C@@H]12` it was 8.57%; in that of `O=C(N1CCCCC1)N1CCCN(C(=O)N2CCCCC2)CC1`, 11.3%. Consider `CCN(C(=O)c1ccccc1Cl)c1ccccc1`, for which the “hERG current change (%, negative = inhibition) at 1uM” value amounted to 6.14%.

Take `Nc1nnc(SCC(=O)c2ccccc2)s1`: the “hERG current change (%, negative = inhibition) at 1uM” value came out at 3.52%. In the case of `CCN(CCCNC(=O)C1CCN(S(=O)(=O)N2CCOCC2)CC1)c1cccc(C)c1` it was 12%. Next, `CSc1ccc(S(=O)(=O)NC2CC2)cc1`: 16.1%; `Cc1ccc(-n2nnnc2C(=Cc2ccc(N(C)C)cc2)c2nnnn2-c2ccc(C)cc2)cc1`: 11.8%; `Cc1cccc(-n2c(SC(C)C(=O)O)nc3sc4c(c3c2=O)CCCC4)c1` (stereo not shown): 16.2%. Regarding `O=c1[nH]cnc2c1ncn2Cc1ccc([N+](=O)[O-])cc1`, the “hERG current change (%, negative = inhibition) at 1uM” value is recorded as 23.9%. In the case of `O=C(O)C(=O)O.O=C(c1cccc(F)c1)N1CCN(CC2CC3C=CC2C3)CC1` (stereo not shown) it was 11.8%; in that of `COc1cc(OC)c(C(=O)Oc2ccc3c(c2)OCO3)cc1OC`, 9.14%. Consider `CCCOc1ccc(C(O)CCNC(CC(=O)O)c2ccccc2)cc1` (stereo not shown), for which the “hERG current change (%, negative = inhibition) at 1uM” value was 22.5%.

Take `CCOC(=O)C1(C(F)(F)F)N=C(C(F)(F)F)Nc2ccccc21` (stereo not shown): the “hERG current change (%, negative = inhibition) at 1uM” value came to 8.95%. Next, `Cc1c(-n2c(SCC(=O)NC(C)C(C)C)nc3ccccc3c2=O)c(=O)n(-c2ccccc2)n1C` (stereo not shown): 11.7%; `COc1ccccc1N1CCN(C2CCCN(S(=O)(=O)c3ccccc3)C2)CC1` (stereo not shown): -3.88%. In the case of `Cc1ccc(/C=C/C(=O)NCCCN2CCN(CCCNC(=O)/C=C/c3ccc(C)o3)CC2)o1` it was -22.7%; in that of `CCOC(=O)c1sc2nc3c(SCCC#N)cc(C(=O)c4cc(F)ccc4O)cn3c(=O)c2c1C`, 0.49%; in that of `COn1c(SCc2ccc(Cl)cc2)nc2ccccc2c1=O`, 11.9%.

Take `O=c1cccc2n1CC1CC2CN(c2nc(N3CCCCC3)nc(N3CCCCC3)n2)C1` (stereo not shown): the “hERG current change (%, negative = inhibition) at 1uM” value was -11.6%.

Regarding `CCOC(=O)N1CCN(C(=O)CN(C)S(=O)(=O)c2ccc(OCC)cc2)CC1`, the “hERG current change (%, negative = inhibition) at 1uM” value worked out at 6.94%.
